Measurements as given in paper PMC4336329 (PLoS ONE, 2015).
The campaign covered roughly 310,000 compounds. About 2,200 (0.71%) showed an effect of 50% or more. The effect is printed as a negative number. Some of the results follow.

Biological target: human ether-à-go-go-related gene (hERG) potassium channel (human, UniProt Q12809)
Assay: primary screen, population patch clamp on CHO cells stably expressing hERG

Chain of human ether-à-go-go-related gene (hERG) potassium channel (Q12809 whole entry, looked up): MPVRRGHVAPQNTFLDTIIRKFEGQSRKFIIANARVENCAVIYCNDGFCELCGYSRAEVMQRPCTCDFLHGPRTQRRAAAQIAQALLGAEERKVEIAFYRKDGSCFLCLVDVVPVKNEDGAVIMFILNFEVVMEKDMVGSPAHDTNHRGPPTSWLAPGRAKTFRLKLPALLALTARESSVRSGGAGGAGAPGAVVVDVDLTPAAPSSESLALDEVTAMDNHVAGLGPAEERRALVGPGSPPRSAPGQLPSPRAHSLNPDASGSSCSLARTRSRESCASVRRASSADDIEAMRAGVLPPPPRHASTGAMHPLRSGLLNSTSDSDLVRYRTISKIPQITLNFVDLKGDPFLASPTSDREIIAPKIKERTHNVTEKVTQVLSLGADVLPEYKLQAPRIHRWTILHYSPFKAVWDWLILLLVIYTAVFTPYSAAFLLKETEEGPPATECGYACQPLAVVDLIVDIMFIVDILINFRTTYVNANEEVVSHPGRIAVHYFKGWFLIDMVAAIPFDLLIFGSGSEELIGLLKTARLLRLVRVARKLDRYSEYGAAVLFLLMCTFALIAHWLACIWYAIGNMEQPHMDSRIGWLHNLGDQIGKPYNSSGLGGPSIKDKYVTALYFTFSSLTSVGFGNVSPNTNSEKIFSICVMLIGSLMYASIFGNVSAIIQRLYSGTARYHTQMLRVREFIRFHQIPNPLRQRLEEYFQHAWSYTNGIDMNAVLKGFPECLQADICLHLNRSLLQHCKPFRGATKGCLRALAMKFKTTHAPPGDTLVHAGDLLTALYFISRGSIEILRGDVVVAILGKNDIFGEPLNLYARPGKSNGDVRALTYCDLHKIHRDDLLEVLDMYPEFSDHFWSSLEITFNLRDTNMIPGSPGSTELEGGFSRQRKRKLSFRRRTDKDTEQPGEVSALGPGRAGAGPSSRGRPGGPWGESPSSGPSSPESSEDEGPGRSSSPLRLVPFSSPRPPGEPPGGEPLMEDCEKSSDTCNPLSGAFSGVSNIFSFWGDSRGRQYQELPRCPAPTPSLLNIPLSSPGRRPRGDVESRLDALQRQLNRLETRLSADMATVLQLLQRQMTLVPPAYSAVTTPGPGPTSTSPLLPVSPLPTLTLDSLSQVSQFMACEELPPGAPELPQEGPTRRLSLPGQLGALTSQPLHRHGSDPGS

SMILES	hERG current change (%, negative = inhibition) at 1uM [%]
CSc1sc(C(=O)Nc2ccc(F)cc2F)c2c1C=CCC2	11.8
O=C(NCCc1ccccc1)NC1CCCCC1	19.2
Cc1ccc(C)c(N2CCN(C(=O)CCNS(=O)(=O)c3ccc4c(c3)oc(=O)n4C)CC2)c1	6.2
Cc1ccc(-n2cc(CNCCCn3cccn3)c(-c3cccc(C)c3)n2)cc1	-27.1
CCNC(=S)NNC(=O)c1csc(CC)c1	5.75
CNCCc1ccc(OC)c(OC)c1	16.3
O=C(N/N=C/c1cc([N+](=O)[O-])ccc1O)/C(=C\c1cccs1)NC(=O)c1ccccc1	-11.6
Cc1ccc(NC(=O)CN2CCC(NC(=O)C3CCCCC3)CC2)c(Br)c1	16.1
C=Cn1cc[n+](CC(=O)c2ccc(Br)s2)c1.[Br-]	15.3
CCN(CC)S(=O)(=O)c1cccc(C(=O)N/N=C/c2ccc([N+](=O)[O-])o2)c1	4.1
Cc1ccc(-c2nc(SCC(=O)Nc3ccccc3OC(F)F)c3c(C)c(C(=O)O)sc3n2)cc1	7.59
Cc1ccc(Cl)cc1NS(=O)(=O)c1cn(C)nc1C	9.38
COc1ccc(C(=O)NC(=S)NCCO)cc1Br	-0.56
O=S(=O)(c1cc(Cl)ccc1Cl)N1CCC2(CC1)OCCO2	9.85
COc1ccc2c(c1OC)CCC2=O	-12.1
COc1ccc(N2CCN(C(CNC(=O)C(=O)NCc3ccc4c(c3)OCO4)c3ccco3)CC2)cc1 (stereo not shown)	4.42
CCN(CC(=O)NCCc1ccccc1)S(=O)(=O)c1ccccc1	7.82
CCOC(=O)C1=C(C)N=C2SC(C)C(=O)N2C1c1ccc(OCC)c(OCC)c1 (stereo not shown)	15.8
Cc1onc(-c2c(F)cccc2Cl)c1C(=O)OCC(=O)NC1CC1	11
Cc1noc(C)c1CN1C(=O)NC2(CCCCCCC2)C1=O	6.38
CC1CC2(CCCC2)Nc2ccc(F)cc21.Cl (stereo not shown)	16.7
O=C(CN1CCOCC1)N/N=C/c1ccc(-c2ccc(Br)cc2)o1	-13.2
O=C(NCc1ncc(C(F)(F)F)cc1Cl)Nc1ccccc1	14.6
COc1ccccc1CCC(=O)OCC(=O)Nc1ccc(S(N)(=O)=O)cc1	8.23
NC(=O)c1ccc(Nc2ccc([N+](=O)[O-])cc2[N+](=O)[O-])cc1	-0.833
